# The campaign covered roughly 110,000 compounds. About 230 (0.21%) showed an effect of 50% or more. The list shows a part of the results.
# Biological target: DPAP1 (Plasmodium falciparum, UniProt Q8IIJ9)
# Experiment: primary screen, percent inhibition; read by cleavage of a fluorogenic dipeptide substrate; higher = more effect of the substance
# Parameters: species or system P. falciparum D10 trophozoite lysates; single well
# 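Also: 30 min substrate incubation versus DMSO and 10 µM JCP410 controls.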
# Sequence of DPAP1 (Q8IIJ9 whole entry, looked up): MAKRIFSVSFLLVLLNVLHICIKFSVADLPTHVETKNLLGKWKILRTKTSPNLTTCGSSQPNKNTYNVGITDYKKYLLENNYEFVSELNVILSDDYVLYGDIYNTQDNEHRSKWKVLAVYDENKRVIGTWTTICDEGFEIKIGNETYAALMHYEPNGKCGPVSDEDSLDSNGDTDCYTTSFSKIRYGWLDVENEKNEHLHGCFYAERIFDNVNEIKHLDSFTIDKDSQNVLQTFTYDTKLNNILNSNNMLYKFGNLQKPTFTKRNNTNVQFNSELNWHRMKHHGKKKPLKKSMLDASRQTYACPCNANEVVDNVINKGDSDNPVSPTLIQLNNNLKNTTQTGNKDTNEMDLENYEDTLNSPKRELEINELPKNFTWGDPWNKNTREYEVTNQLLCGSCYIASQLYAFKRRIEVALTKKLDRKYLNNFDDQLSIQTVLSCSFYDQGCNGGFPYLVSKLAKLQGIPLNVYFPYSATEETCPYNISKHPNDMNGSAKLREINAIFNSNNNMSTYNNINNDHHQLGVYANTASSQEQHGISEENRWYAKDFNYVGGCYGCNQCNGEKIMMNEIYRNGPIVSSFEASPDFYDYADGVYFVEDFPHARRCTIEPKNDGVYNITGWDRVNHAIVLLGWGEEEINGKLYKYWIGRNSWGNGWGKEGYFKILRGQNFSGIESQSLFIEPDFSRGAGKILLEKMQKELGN
row,SMILES,% Inhibition @ 10 uM [%]
1,OC1CCN(Cc2c(F)cccc2F)CC1,0.273
2,Cc1ccc(S(=O)(=O)N2CCN(C(=O)COc3ccccc3)C2c2ccccc2)cc1 (stereo not drawn),-8.17
3,O=C(O)c1ccc2c(c1)C(=O)N(c1ccccc1Cl)C2=O,-1.95
4,CCS(=O)(=O)n1nc(-c2ccc(OC)cc2)nc1SC,-0.958
5,c1ccc(-c2noc(-c3ccc4ccccc4c3)n2)cc1,-1.99
6,N#CC1=C(N)Oc2[nH]nc(-c3ccc(Cl)c(Cl)c3)c2C1c1ccc(O)c(O)c1 (stereo not drawn),4.09
7,CC1(C)CC2=Nc3ccccc3NC(c3ccc4c(c3)OCO4)C2=C(O)C1 (stereo not drawn),-4.58
8,Cc1[nH]c2ccccc2c1C(=O)/C=C/c1c2ccccc2cc2ccccc12,-1.86
9,O=C(NC1CCCC1)C1CC1c1ccccc1 (stereo not drawn),1.26
10,COc1ccc(CCNS(=O)(=O)c2cc(F)ccc2CN2C(=O)c3cccnc3C2=O)cc1OC,-4.05
11,CN(C)c1ccc(NC(=O)C(=O)NCc2ccccc2Cl)cc1,-2.18
12,CSc1ncc(C(=O)NC(C)c2ccccc2)c(C)n1 (stereo not drawn),-1.26
13,O=C(CCc1nc2ncccc2c(=O)n1Cc1ccccc1Cl)N1CCN(C2CCCCC2)CC1,0.953
14,COc1ccc(-c2cc(C(=O)NCC3CCCO3)c3cc(C)ccc3n2)cc1 (stereo not drawn),5.17
15,COC(=O)c1nnc(O)c2ccccc12,1.7
16,O=c1cccc2n1C[C@H]1C[C@@H]2CN(Cc2c(F)cccc2F)C1,-1.85
17,CCOC(=O)CC1=CC(C)(CC(=O)OCC)C(C#N)(C#N)C(N)=C1C#N (stereo not drawn),-0.215
18,Cc1ccc(C)c(Cn2cnc3c(cnn3-c3ccc(Cl)cc3)c2=O)c1,-1.75
19,Cc1ccc(-c2nc(CS(=O)(=O)CC(=O)NCCCN3CCN(C)CC3)c(C)o2)cc1,-3.7
20,O=C(CCc1nnc2n(CCc3ccccc3)c(=O)c3ccccc3n12)NCc1cccnc1,-2.42
21,O=C1CC(N2C(=O)S/C(=C\c3ccc(F)cc3)C2=O)C(=O)N1c1ccccc1 (stereo not drawn),4.44
22,Cc1ccc(-c2nc3nc(C)cc(C)n3n2)cc1,4.18
23,CCOc1ccccc1N1CCN(Cc2ccc([N+](=O)[O-])s2)CC1,-3.77
24,COc1cccc2c1Oc1ncccc1N(c1ccc(C(=O)N3CCOCC3)s1)C2,4.76
25,CC(=O)NC1=C(C#N)C(c2ccccc2)c2c(ccc3ccccc23)O1 (stereo not drawn),-2.45

row,SMILES,% Inhibition @ 10 uM [%]
1,O=[N+]([O-])c1ccc(CN2CCN(c3ccccc3F)CC2)cc1,3.8
2,O=C(CSc1nc2nccnc2c(=O)n1CCc1c[nH]c2ccccc12)NCC1CCCO1 (stereo not drawn),1.96
3,O=C(Nc1c(C(=O)N2CCCCCC2)cnn1-c1ccccc1)c1ccccc1Cl,1.98
4,NC(=O)C1CCCN(Cc2ccccc2Cl)C1 (stereo not drawn),1.26
5,CCCC1=C(C(=O)OCC)C(c2sccc2C)C(C#N)=C(N)O1 (stereo not drawn),3.8
6,C/C(=C\c1ccc(F)cc1)C(=O)c1c(C)cc(C)nc1O,-2.48
7,Cc1c(Cl)cccc1-n1nc(C)c2c(C)cc(=O)n(CC(=O)NC(C)C)c21,0.936
8,CCOC(=O)c1ccc2[nH]c3ccccc3c2c1,-1.33
9,COc1ccc(CCNC(=O)C2CCN(S(=O)(=O)c3ccc(OC)c(OC)c3)CC2)cc1OC,-11.3
10,CCCCCC(=O)NCC(=O)O,3.25
11,CCCCSC(=S)NC1CCS(=O)(=O)C1 (stereo not drawn),14.4
12,COc1ccc2c(c1)OC1(C)CC2/C(=C(\C)O)C(=O)N1 (stereo not drawn),4.34
13,COc1ccccc1/N=C1\SC(CC(=O)Nc2cccc(C)c2C)C(=O)N1C (stereo not drawn),-2.03
14,N#CC1(NC(=O)[C@H](CC2CCCCC2)NC(c2cccs2)C(F)(F)F)CC1 (stereo partly drawn),-4.82
15,COc1cccc(-c2ccc(-c3noc(-c4ccccc4F)n3)c(OC)n2)c1,3.73
16,O=C(Cn1cc(S(=O)(=O)Cc2ccccc2)c2ccccc21)N1CCCC1,-0.826
17,Cc1n[nH]c(C)c1Nc1nc(-c2ccccc2)cs1,-6.71
18,NC(=O)c1c(NC(=O)C2CC=CCC2C(=O)O)sc2c1CCCCC2 (stereo not drawn),22.2
19,CCn1c(SCC(N)=O)nnc1-c1ccc2c(c1)OCO2,5.32
20,CC(=O)NCC1CCC(C(=O)O)CC1 (stereo not drawn),-6.68
21,Cc1ccc(S(=O)(=O)Cc2nc(-c3ccc(C(=O)NCc4cccnc4)cc3)oc2C)cc1,0.967
22,COc1cccc(/C=C2/C(=N)N3C=CSC3=NC2=O)c1OCCCOc1ccc(C)c(C)c1,0.147
23,CC(=O)c1nnn(-c2ccccc2)c1Nc1ccccc1,3.83
24,CCOC(=O)C1=C(C)NC(=O)NC1c1ccc(-c2cc(Cl)cc(Cl)c2)o1 (stereo not drawn),5.55
25,COc1ccc(C2(CNC(=O)CCC(=O)O)CCOCC2)cc1,-1.69

row,SMILES,% Inhibition @ 10 uM [%]
1,c1cnc2ccc(-c3ccc4ncccc4c3)cc2c1,-6.71
2,CCOc1ccc(CCNCc2c(C(=O)O)n(Cc3ccc(F)cc3)c3cc(OC)ccc23)cc1,9.74
3,Cc1cc(C)c2nc(N3CCCC(C(=O)NCc4cccnc4)C3)sc2c1 (stereo not drawn),1.8
4,COc1ccc(N2C(=O)NC(=O)/C(=C\c3cccn3C)C2=O)cc1,2.16
5,N#C/C(=C\c1c[nH]c2ccccc12)c1nn(CCO)c(N)c1C#N,-4.24
6,COc1ccc(-c2cn3nc(N4CCCC(C(=O)NCCCN5CCOCC5)C4)sc3n2)cc1 (stereo not drawn),-1.41
7,CCOC(=O)c1c(-c2ccccc2)oc2ccc(O)cc12,-6.06
8,Fc1ccccc1C1C2=C(Nc3ncnn31)c1cc(Cl)ccc1OC2c1cccs1 (stereo not drawn),6.36
9,CC(C)(C)Nc1ccc2nonc2c1[N+](=O)[O-],-0.712
10,CC1CCN(c2c(NCC3CCC(C(=O)NCCc4ccc(Cl)cc4)CC3)c(=O)c2=O)CC1 (stereo not drawn),-0.447
11,COc1ccc(CNc2nc(-c3cccnc3)nn2C(=O)c2ccccc2Cl)cc1,-1.15
12,CCc1ccc(C2C(C#N)=C(N)N(c3c(F)cccc3F)C3=C2C(=O)CCC3)s1 (stereo not drawn),-1.64
13,COc1ccc(NC(=O)CN(Cc2ccccc2)S(C)(=O)=O)cc1OC,-1.88
14,COc1ccc(CNC(=O)c2cc(-c3ccc4c(c3)OCO4)on2)cc1,-5.09
15,COc1ccc(CC(=O)Nc2ccc(Cl)c(C(F)(F)F)c2)cc1,-4.87
16,COc1ccc(CNS(=O)(=O)c2csc(C(N)=O)c2)cc1,3.54
17,CCOC(=O)c1c(C)oc2ncnc(NCCc3ccc(S(N)(=O)=O)cc3)c12,0.536
18,COc1cc(CCC(=O)Nc2c(C(=O)N3CCN(Cc4ccccc4)CC3)oc3ccccc23)on1,-4.68
19,CC(C)c1ccccc1NC(=O)CN(c1ccccc1Br)S(C)(=O)=O,2.19
20,COc1ccc(S(=O)(=O)N(CC(=O)N2CCN(C)CC2)c2cc(Cl)ccc2OC)cc1OC,0.147
21,C=C(C)CN(CC)Cc1cc(Cl)cc(Cl)c1O,2.1
22,Cc1nn(-c2ccccc2)c2c1N(CC(=O)NCc1ccccc1)C(=O)CS2,-0.858
23,CCOc1ccccc1/C=C1\CCc2ccccc2C1=O,-3.79
24,Cc1cccc2c1-c1sc(C(=O)NCc3ccc(F)cc3)cc1CO2,-4.85
25,Cc1nn2c(=O)cc(COc3ccc(/C=C4\C(=N)N5N=C(C(C)C)SC5=NC4=O)cc3)nc2s1,4.28

row,SMILES,% Inhibition @ 10 uM [%]
1,CC(C)(C)S(=O)(=O)c1ccccn1,3.42
2,CCN1CCN(Cc2cc(F)ccc2F)CC1,-4.14
3,CCCCNC(=O)CNC(=S)N(Cc1ccccc1F)C1CCCCC1,1.27
4,Cc1ccc(NC(=O)CCCN2C(=O)c3ccccc3C2=O)cc1,-3.65
5,O=C(O)C1Nc2ccc(Cl)cc2C2C=CCC12 (stereo not drawn),6.66
6,Cc1c(Cc2ccccc2)sc(NC(=O)CCC(=O)O)c1C(N)=O,2.13
7,c1ccc(CN2CCC(N3CCN(Cc4ccccc4)CC3)CC2)cc1,-1.15
8,O=C(COc1ccc(Cl)cc1Cl)NCCNC1=NS(=O)(=O)c2ccccc21,3.47
9,O=C(CCCC(=O)c1ccccc1)NC1CCCCCCC1,-1.46
10,Cc1ccc2c(c1)-c1c(cnn1CC(=O)NC(C)CCc1ccco1)CO2 (stereo not drawn),-1.36
11,COc1ccc(N2CCN(C(=O)CN(c3cc(C)ccc3OC)S(C)(=O)=O)CC2)cc1,-13
12,CCCOc1ccc(CNC(=O)CCC(=O)n2ncc3ccc(Cl)cc32)cc1,8.34
13,COC(=O)C1=CN(Cc2cccs2)C=C(C(=O)OC)C1c1ccccc1OC(C)C,-1.47
14,COCCNC(=O)c1cc(-c2ccc(Cl)cc2)nc2ccccc12,-3.75
15,NS(=O)(=O)c1ccc(CCNC(=O)CSc2nc3ccccc3c3nc4ccccc4n23)cc1,6.2
16,Cn1cc(/C=C2/SC(=O)N(CC(=O)Nc3ccc4c(c3)OCO4)C2=O)c2ccccc21,-17.9
17,O=C1N(c2cccc(C(F)(F)F)c2)C2CS(=O)(=O)CC2N1c1ccccc1Cl (stereo not drawn),-2.98
18,Cc1ccc(CNC(=O)CNC(=S)N(CCCN2CCOCC2)Cc2cccs2)cc1,-2.14
19,O=C(O)/C=C\C(=O)c1ccccc1,-1.9
20,O=c1cc(CSc2nc3ccccc3c3nc4ccccc4n23)nc2ccc(Br)cn12,7.41
21,CCCc1n(CC(O)COC2CCCCC2)c2ccccc2[n+]1CC (stereo not drawn),0.147
22,Cc1cc2sc(NC(=O)c3cncc(Br)c3)nc2cc1Cl,1.84
23,O=C(Nc1ccc2c(c1)OCCO2)c1cccs1,-3.16
24,CC(=O)Nc1cc(NC(C)=O)c(C)cc1C,3.14

# Reference: PMC6919601, “Identification of Plasmodium dipeptidyl aminopeptidase allosteric inhibitors by high throughput screening” (PLoS ONE, 2019)
